Experimental data: paper PMC9911399, “Two distinct binding modes provide the RNA-binding protein RbFox with extraordinary sequence specificity”
Where a chain is given by its changes, count along the chain named. The list shows a part of the results.

T1: RBFOX1 RRM RbFoxmut (Fox-RRM*) (Homo sapiens, UniProt Q9NWB1 109-208, R118D;E147R;N151S;E152T)
T1 sequence: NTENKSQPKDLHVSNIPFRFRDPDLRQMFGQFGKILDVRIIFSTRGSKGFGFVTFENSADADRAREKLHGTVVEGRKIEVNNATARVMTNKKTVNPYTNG

B1: AGUCCAC (DNA:RNA)
RNA: GGGAGACCGGAAUUCAGAUUGUCCAGUCCACUUAAAUCCCGUCGUAGCCACCA
DNA 1: CAATCTGAATTCCGGTCTCCC
DNA 2: TGGTGGCTACGACGGGATT
B2: CGAGAGA (DNA:RNA)
RNA: B1 RNA with A25C, U27A, C28G, C29A, A30G, C31A
DNA 1: CAATCTGAATTCCGGTCTCCC
DNA 2: TGGTGGCTACGACGGGATT
B3: GGAAGUC (DNA:RNA)
RNA: B1 RNA with A25G, U27A, C28A, C29G, A30U
DNA 1: CAATCTGAATTCCGGTCTCCC
DNA 2: TGGTGGCTACGACGGGATT
B4: UUUAACU (DNA:RNA)
RNA: B1 RNA with A25U, G26U, C28A, C29A, A30C, C31U
DNA 1: CAATCTGAATTCCGGTCTCCC
DNA 2: TGGTGGCTACGACGGGATT
B5: UAACAUU (DNA:RNA)
RNA: B1 RNA with A25U, G26A, U27A, C29A, A30U, C31U
DNA 1: CAATCTGAATTCCGGTCTCCC
DNA 2: TGGTGGCTACGACGGGATT
B6: CUCAAAG (DNA:RNA)
RNA: B1 RNA with A25C, G26U, U27C, C28A, C29A, C31G
DNA 1: CAATCTGAATTCCGGTCTCCC
DNA 2: TGGTGGCTACGACGGGATT
B7: ACUCAUA (DNA:RNA)
RNA: B1 RNA with G26C, C29A, A30U, C31A
DNA 1: CAATCTGAATTCCGGTCTCCC
DNA 2: TGGTGGCTACGACGGGATT
B8: GAGAAGG (DNA:RNA)
RNA: GGGAGACCGGAAUUCAGAUUGUCCGAGAAGGUUAAAUCCCGUCGUAGCCACCA
DNA 1: CAATCTGAATTCCGGTCTCCC
DNA 2: TGGTGGCTACGACGGGATT
B9: GCACGCC (DNA:RNA)
RNA: B1 RNA with A25G, G26C, U27A, C29G, A30C
DNA 1: CAATCTGAATTCCGGTCTCCC
DNA 2: TGGTGGCTACGACGGGATT
B10: UGCGGAU (DNA:RNA)
RNA: B1 RNA with A25U, U27C, C28G, C29G, C31U
DNA 1: CAATCTGAATTCCGGTCTCCC
DNA 2: TGGTGGCTACGACGGGATT
B11: GGGAUCA (DNA:RNA)
RNA: B8 RNA with A26G, A29U, G30C, G31A
DNA 1: CAATCTGAATTCCGGTCTCCC
DNA 2: TGGTGGCTACGACGGGATT
B12: GGAUAUU (DNA:RNA)
RNA: B8 RNA with A26G, G27A, A28U, G30U, G31U
DNA 1: CAATCTGAATTCCGGTCTCCC
DNA 2: TGGTGGCTACGACGGGATT
B13: GAGGGCC (DNA:RNA)
RNA: B8 RNA with A28G, A29G, G30C, G31C
DNA 1: CAATCTGAATTCCGGTCTCCC
DNA 2: TGGTGGCTACGACGGGATT
B14: ACAGGGG (DNA:RNA)
RNA: B8 RNA with G25A, A26C, G27A, A28G, A29G
DNA 1: CAATCTGAATTCCGGTCTCCC
DNA 2: TGGTGGCTACGACGGGATT
B15: UGUAACU (DNA:RNA)
RNA: B1 RNA with A25U, C28A, C29A, A30C, C31U
DNA 1: CAATCTGAATTCCGGTCTCCC
DNA 2: TGGTGGCTACGACGGGATT
B16: UCCUCGG (DNA:RNA)
RNA: B8 RNA with G25U, A26C, G27C, A28U, A29C
DNA 1: CAATCTGAATTCCGGTCTCCC
DNA 2: TGGTGGCTACGACGGGATT
B17: GAGUCCA (DNA:RNA)
RNA: B8 RNA with A28U, A29C, G30C, G31A
DNA 1: CAATCTGAATTCCGGTCTCCC
DNA 2: TGGTGGCTACGACGGGATT
B18: CUCAGCC (DNA:RNA)
RNA: B1 RNA with A25C, G26U, U27C, C28A, C29G, A30C
DNA 1: CAATCTGAATTCCGGTCTCCC
DNA 2: TGGTGGCTACGACGGGATT
B19: AAGGCAG (DNA:RNA)
RNA: B1 RNA with G26A, U27G, C28G, C31G
DNA 1: CAATCTGAATTCCGGTCTCCC
DNA 2: TGGTGGCTACGACGGGATT
B20: UUACACU (DNA:RNA)
RNA: B1 RNA with A25U, G26U, U27A, C29A, A30C, C31U
DNA 1: CAATCTGAATTCCGGTCTCCC
DNA 2: TGGTGGCTACGACGGGATT
B21: UGUUCGU (DNA:RNA)
RNA: B1 RNA with A25U, C28U, A30G, C31U
DNA 1: CAATCTGAATTCCGGTCTCCC
DNA 2: TGGTGGCTACGACGGGATT
B22: GUAUAAG (DNA:RNA)
RNA: B8 RNA with A26U, G27A, A28U, G30A
DNA 1: CAATCTGAATTCCGGTCTCCC
DNA 2: TGGTGGCTACGACGGGATT
B23: AUCCCGU (DNA:RNA)
RNA: B1 RNA with G26U, U27C, A30G, C31U
DNA 1: CAATCTGAATTCCGGTCTCCC
DNA 2: TGGTGGCTACGACGGGATT
B24: GUUUAUC (DNA:RNA)
RNA: B1 RNA with A25G, G26U, C28U, C29A, A30U
DNA 1: CAATCTGAATTCCGGTCTCCC
DNA 2: TGGTGGCTACGACGGGATT
B25: GCGAAAG (DNA:RNA)
RNA: B8 RNA with A26C, G30A
DNA 1: CAATCTGAATTCCGGTCTCCC
DNA 2: TGGTGGCTACGACGGGATT
B26: CGCAGAG (DNA:RNA)
RNA: B1 RNA with A25C, U27C, C28A, C29G, C31G
DNA 1: CAATCTGAATTCCGGTCTCCC
DNA 2: TGGTGGCTACGACGGGATT
B27: CACAGUA (DNA:RNA)
RNA: B8 RNA with G25C, G27C, A29G, G30U, G31A
DNA 1: CAATCTGAATTCCGGTCTCCC
DNA 2: TGGTGGCTACGACGGGATT
B28: CUGACCC (DNA:RNA)
RNA: B1 RNA with A25C, G26U, U27G, C28A, A30C
DNA 1: CAATCTGAATTCCGGTCTCCC
DNA 2: TGGTGGCTACGACGGGATT
B29: CCUGCCU (DNA:RNA)
RNA: B1 RNA with A25C, G26C, C28G, A30C, C31U
DNA 1: CAATCTGAATTCCGGTCTCCC
DNA 2: TGGTGGCTACGACGGGATT
B30: UUCCCCC (DNA:RNA)
RNA: B1 RNA with A25U, G26U, U27C, A30C
DNA 1: CAATCTGAATTCCGGTCTCCC
DNA 2: TGGTGGCTACGACGGGATT
B31: AGAAAUG (DNA:RNA)
RNA: B8 RNA with G25A, A26G, G27A, G30U
DNA 1: CAATCTGAATTCCGGTCTCCC
DNA 2: TGGTGGCTACGACGGGATT

Molecular target: T1, RBFOX1 RRM RbFoxmut (Fox-RRM*)
Assay: EMSA; HiTS-Eq, 1 nM pool, 10 min; buffer printed only for the single-RNA assays: 10 mM Tris pH 7.5, 150 mM NaCl, 3.4 mM EDTA, 0.001% NP-40, 30 C
Conditions: tags: His6 N-terminal (pET28a); label: 5' 32P
How it was run: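 Relative association constants, normalised to the cognate motif, were derived by comparing read counts of each RNA species with those of the control reaction. The RNA sequenced was the free fraction, separated by 8% native PAGE after a 10 min equilibration in 50 µL of 1 nM 5′-radiolabelled RNA (7 randomized nucleotides) with increasing concentrations of purified wild-type or mutant RbFox RRM.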

| Binder | binding signal |
| --- | --- |
| B1 | 0.1 KA relative to UGCAUGU |
| B2 | 0.1 KA relative to UGCAUGU |
| B3 | 0.111 KA relative to UGCAUGU |
| B4 | 0.0936 KA relative to UGCAUGU |
| B5 | 0.0675 KA relative to UGCAUGU |
| B6 | 0.129 KA relative to UGCAUGU |
| B7 | 0.131 KA relative to UGCAUGU |
| B8 | 0.0608 KA relative to UGCAUGU |
| B9 | 0.115 KA relative to UGCAUGU |
| B10 | 0.112 KA relative to UGCAUGU |
| B11 | 0.232 KA relative to UGCAUGU |
| B12 | 0.105 KA relative to UGCAUGU |
| B13 | 0.163 KA relative to UGCAUGU |
| B14 | 0.106 KA relative to UGCAUGU |
| B15 | 0.091 KA relative to UGCAUGU |
| B16 | 0.0845 KA relative to UGCAUGU |

| Binder | binding signal |
| --- | --- |
| B17 | 0.0877 KA relative to UGCAUGU |
| B18 | 0.0759 KA relative to UGCAUGU |
| B19 | 0.0853 KA relative to UGCAUGU |
| B20 | 0.0701 KA relative to UGCAUGU |
| B21 | 0.291 KA relative to UGCAUGU |
| B22 | 0.13 KA relative to UGCAUGU |
| B23 | 0.0892 KA relative to UGCAUGU |
| B24 | 0.0808 KA relative to UGCAUGU |
| B25 | 0.0795 KA relative to UGCAUGU |
| B26 | 0.128 KA relative to UGCAUGU |
| B27 | 0.135 KA relative to UGCAUGU |
| B28 | 0.0622 KA relative to UGCAUGU |
| B29 | 0.0809 KA relative to UGCAUGU |
| B30 | 0.0582 KA relative to UGCAUGU |
| B31 | 0.121 KA relative to UGCAUGU |
